From publication PMC9911399
Some of the results follow.

These sequences were tested against T1, RBFOX1 RRM (Homo sapiens) (UniProt Q9NWB1) (assay: EMSA). Conditions: HiTS-Eq, 1 nM pool, 10 min; buffer printed only for the single-RNA assays: 10 mM Tris pH 7.5, 150 mM NaCl, 3.4 mM EDTA, 0.001% NP-40, 30 C.
T1 sequence: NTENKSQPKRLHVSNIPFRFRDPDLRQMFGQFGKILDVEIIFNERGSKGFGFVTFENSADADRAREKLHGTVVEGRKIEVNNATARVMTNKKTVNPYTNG

Row | Sequence | binding signal (KA relative to UGCAUGU)
1 | GGGAGACCGGAAUUCAGAUUGUCCCCACCCAUUAAAUCCCGUCGUAGCCACCA / CAATCTGAATTCCGGTCTCCC / TGGTGGCTACGACGGGATT | 0.00425
2 | GGGAGACCGGAAUUCAGAUUGUCCUCCCCCGUUAAAUCCCGUCGUAGCCACCA / CAATCTGAATTCCGGTCTCCC / TGGTGGCTACGACGGGATT | 0.00554
3 | GGGAGACCGGAAUUCAGAUUGUCCGGUGCCCUUAAAUCCCGUCGUAGCCACCA / CAATCTGAATTCCGGTCTCCC / TGGTGGCTACGACGGGATT | 0.0104
4 | GGGAGACCGGAAUUCAGAUUGUCCGCUCCCUUUAAAUCCCGUCGUAGCCACCA / CAATCTGAATTCCGGTCTCCC / TGGTGGCTACGACGGGATT | 0.00639
5 | GGGAGACCGGAAUUCAGAUUGUCCCUCCCAAUUAAAUCCCGUCGUAGCCACCA / CAATCTGAATTCCGGTCTCCC / TGGTGGCTACGACGGGATT | 0.00361
6 | GGGAGACCGGAAUUCAGAUUGUCCUCCCAUAUUAAAUCCCGUCGUAGCCACCA / CAATCTGAATTCCGGTCTCCC / TGGTGGCTACGACGGGATT | 0.00271
7 | GGGAGACCGGAAUUCAGAUUGUCCCCCAAUCUUAAAUCCCGUCGUAGCCACCA / CAATCTGAATTCCGGTCTCCC / TGGTGGCTACGACGGGATT | 0.000456
8 | GGGAGACCGGAAUUCAGAUUGUCCGGCCCCAUUAAAUCCCGUCGUAGCCACCA / CAATCTGAATTCCGGTCTCCC / TGGTGGCTACGACGGGATT | 0.0326
9 | GGGAGACCGGAAUUCAGAUUGUCCGGUCCCUUUAAAUCCCGUCGUAGCCACCA / CAATCTGAATTCCGGTCTCCC / TGGTGGCTACGACGGGATT | 0.00558
10 | GGGAGACCGGAAUUCAGAUUGUCCCCCUCCCUUAAAUCCCGUCGUAGCCACCA / CAATCTGAATTCCGGTCTCCC / TGGTGGCTACGACGGGATT | 0.00751
11 | GGGAGACCGGAAUUCAGAUUGUCCCCCCGGAUUAAAUCCCGUCGUAGCCACCA / CAATCTGAATTCCGGTCTCCC / TGGTGGCTACGACGGGATT | 0.00831
12 | GGGAGACCGGAAUUCAGAUUGUCCCCCACCCUUAAAUCCCGUCGUAGCCACCA / CAATCTGAATTCCGGTCTCCC / TGGTGGCTACGACGGGATT | 0.00453
13 | GGGAGACCGGAAUUCAGAUUGUCCGGUCCGGUUAAAUCCCGUCGUAGCCACCA / CAATCTGAATTCCGGTCTCCC / TGGTGGCTACGACGGGATT | 0.027
14 | GGGAGACCGGAAUUCAGAUUGUCCCCCCCACUUAAAUCCCGUCGUAGCCACCA / CAATCTGAATTCCGGTCTCCC / TGGTGGCTACGACGGGATT | 0.0114
15 | GGGAGACCGGAAUUCAGAUUGUCCGGUCUACUUAAAUCCCGUCGUAGCCACCA / CAATCTGAATTCCGGTCTCCC / TGGTGGCTACGACGGGATT | 0.00661
16 | GGGAGACCGGAAUUCAGAUUGUCCCCCGGAAUUAAAUCCCGUCGUAGCCACCA / CAATCTGAATTCCGGTCTCCC / TGGTGGCTACGACGGGATT | 0.0202
17 | GGGAGACCGGAAUUCAGAUUGUCCCCCGACCUUAAAUCCCGUCGUAGCCACCA / CAATCTGAATTCCGGTCTCCC / TGGTGGCTACGACGGGATT | 0.00671
18 | GGGAGACCGGAAUUCAGAUUGUCCGCUCCCAUUAAAUCCCGUCGUAGCCACCA / CAATCTGAATTCCGGTCTCCC / TGGTGGCTACGACGGGATT | 0.00622
19 | GGGAGACCGGAAUUCAGAUUGUCCCCCCAACUUAAAUCCCGUCGUAGCCACCA / CAATCTGAATTCCGGTCTCCC / TGGTGGCTACGACGGGATT | 0.00312
20 | GGGAGACCGGAAUUCAGAUUGUCCGGCCCCGUUAAAUCCCGUCGUAGCCACCA / CAATCTGAATTCCGGTCTCCC / TGGTGGCTACGACGGGATT | 0.00868
21 | GGGAGACCGGAAUUCAGAUUGUCCCCCACUCUUAAAUCCCGUCGUAGCCACCA / CAATCTGAATTCCGGTCTCCC / TGGTGGCTACGACGGGATT | 0.00531
22 | GGGAGACCGGAAUUCAGAUUGUCCCCCCACCUUAAAUCCCGUCGUAGCCACCA / CAATCTGAATTCCGGTCTCCC / TGGTGGCTACGACGGGATT | 0.00966
23 | GGGAGACCGGAAUUCAGAUUGUCCUCCCUAAUUAAAUCCCGUCGUAGCCACCA / CAATCTGAATTCCGGTCTCCC / TGGTGGCTACGACGGGATT | 0.00677
24 | GGGAGACCGGAAUUCAGAUUGUCCGGCUCUCUUAAAUCCCGUCGUAGCCACCA / CAATCTGAATTCCGGTCTCCC / TGGTGGCTACGACGGGATT | 0.00035
